Results as given in PubChem BioAssay AID1259400 (National Center for Advancing Translational Sciences (NCATS), 2018).
Values joined by “and” are separate entries in the source; they are usually repeats but may differ in a detail not shown here. Equal entries are not always repeated. In all, about 350,000 compounds went through this assay and about 2,100 (0.6%) were called active. This list was built around the results that the source calls inconclusive (neither active nor inactive); the mix of calls is not that of the screen.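 How the source made its calls: active means activity change of -60% or lower, but not beyond a set lower limit; inconclusive means change between -60% and -40%, or beyond the set limit; inactive means change above -40%.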

Molecular target: Relaxin receptor 1 (Homo sapiens) (UniProt Q9HBX9)
Chain of UniProt Q9HBX9 (Q9HBX9 whole entry, looked up): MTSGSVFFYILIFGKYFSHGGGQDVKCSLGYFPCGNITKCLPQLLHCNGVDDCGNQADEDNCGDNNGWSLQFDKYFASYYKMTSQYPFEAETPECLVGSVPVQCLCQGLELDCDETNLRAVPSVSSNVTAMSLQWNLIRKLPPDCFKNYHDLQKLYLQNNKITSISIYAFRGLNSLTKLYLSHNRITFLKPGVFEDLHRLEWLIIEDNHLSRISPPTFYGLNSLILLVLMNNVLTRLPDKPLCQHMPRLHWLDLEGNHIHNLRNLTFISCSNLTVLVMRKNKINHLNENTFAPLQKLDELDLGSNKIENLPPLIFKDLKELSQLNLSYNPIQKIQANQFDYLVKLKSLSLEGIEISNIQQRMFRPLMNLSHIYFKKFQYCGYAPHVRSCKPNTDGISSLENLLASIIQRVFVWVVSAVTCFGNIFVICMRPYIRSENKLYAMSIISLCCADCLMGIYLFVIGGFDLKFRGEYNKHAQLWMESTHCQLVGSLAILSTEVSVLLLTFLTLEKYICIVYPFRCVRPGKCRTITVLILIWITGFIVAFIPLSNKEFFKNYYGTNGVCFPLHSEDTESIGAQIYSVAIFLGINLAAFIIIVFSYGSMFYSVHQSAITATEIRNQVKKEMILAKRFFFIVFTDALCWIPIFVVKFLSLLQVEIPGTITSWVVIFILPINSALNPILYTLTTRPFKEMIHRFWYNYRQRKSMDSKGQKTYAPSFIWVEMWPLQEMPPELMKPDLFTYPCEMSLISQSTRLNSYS
Test: qHTS Assay for Antagonists of the Relaxin Receptor RXFP1
Conditions: HEK293-RXFP1, relaxin-stimulated cAMP HTRF, 30 min; at 57.5 µM; stronger effect = lower value
On the % scale 0 is the no-effect control and ±100 the full control effect.

SMILES	activity change, negative = inhibition
COc1ccc(OC)c(NC(=O)CCN2C(=O)c3ccccc3C2=O)c1	inactive: 1.35%
CCn1c(Cl)c(C=O)s/c1=N\S(=O)(=O)c1ccccc1	active: -86.5%
C[C@@H]1CN(CCCn2c3ccccc3c3ccccc32)C[C@H](C)N1	active: -96.7%
COc1ccc2nc(Nc3nc(C)c(C(C)=O)s3)sc2c1	active: -70%
CCN(CC)CCN1C(=O)c2ccccc2NC1c1ccc(F)cc1 (centres undefined)	inactive: -3.07%
CCC1CCCCN1C(=O)Cn1c(=O)n(-c2ccccc2C(F)(F)F)c(=O)c2c(C)c(C(=O)N(C)C)sc21 (centres undefined)	inactive: -3.11%
Cc1ccc(-n2c(O)c(/C=N/NC(=O)C3COc4ccccc4O3)c3ccccc3c2=O)cc1 (centres undefined)	inconclusive: -54.8%
CCOc1ccccc1C(=O)Nc1ccc(C(=O)c2ccccc2)cc1	inactive: -1.8%
COc1ccc(CN(CCC(c2ccc(F)cc2)C2CCOC(C)(C)C2)C(=O)c2ccco2)cc1 (centres undefined)	inactive: -17.3%
O=C(C1CC1)N1N=C(c2ccncc2)CC1(O)C(F)(F)F (centres undefined)	active: -62.5%
Cc1ccc2sc(N(CCCN(C)C)C(=O)c3ccc(S(=O)(=O)N(C)C4CCCCC4)cc3)nc2c1C	inconclusive: -59.2%
Cc1nc2c(C(=O)NCc3ccco3)cnn2c(C)c1Cc1ccc(F)cc1Cl	inactive: 2.48%
CCCCN1C(=O)C(O)(c2c(C)[nH]c3ccccc23)c2cc(Br)ccc21 (centres undefined)	active: -103%
Cc1cccc(Cc2c(C)nc3c(C(=O)NCc4ccco4)cnn3c2C)c1	inconclusive: -46.1%
Cc1ccc(-c2nnc(SCC(=O)NCCC(C)C)nc2-c2ccc(C)cc2)cc1	inconclusive: -41.9%
Cc1ccc(CCNC(=O)CN2C(=O)COc3ccc(S(=O)(=O)N4CCC(C)CC4)cc32)cc1	inconclusive: -48%
CCOC(=O)/C=c1\s/c(=C\c2ccc(C(F)(F)F)cc2)c(=O)n1CC(=O)NCc1ccco1	inconclusive: -56%
COC(=O)COc1ccc(S(=O)(=O)N2CCN(c3ccc(OC)cc3)CC2)cc1	inconclusive: -50.1%
COC(=O)N/N=C/c1cccc(OCCSc2ccc(Cl)cc2)c1	active: -61.6%
Cc1ccc(OC(=O)C2c3ccccc3Oc3ccccc32)cc1C	inactive: -7.54%
O=C(NCC(c1ccc(F)cc1)N1CCOCC1)c1ccc(OCc2ccccc2)cc1 (centres undefined)	inconclusive: -40%

SMILES	activity change, negative = inhibition
Cc1c(C(=O)N2CCCCC2C)sc2ncnc(N3CCc4ccccc4C3)c12 (centres undefined)	inconclusive: -52.2%
CCOc1cc(/C=N\NC(=O)OC)ccc1OC(=O)c1ccco1	active: -64.3%
CCOc1ccc(NS(=O)(=O)c2ccc(NC(=S)NC(C)=O)cc2)cc1	active: -69.6%
CN(C)c1ccc(/C=C/c2ccc3ccccc3[n+]2C)cc1	active: -91.9%
COc1ccc2[nH]c(=O)c(CN(Cc3cccnc3)S(=O)(=O)c3ccccc3F)cc2c1	inconclusive: -42.7%
COc1ccc(C2=NS(=O)(=O)N(C)C(C(=O)Nc3cc(C)ccc3O)=C2)cc1OC	inconclusive: -44.5% and inconclusive: -57.1%
CCN(CC)CCN1C(=O)/C(=C\c2ccc(Cl)c([N+](=O)[O-])c2)SC1=Nc1ccc(OC)cc1	inactive: -21.2%
Cc1ccc(S(=O)(=O)NCCC(=O)N2CCCC(C)C2)cc1 (centres undefined)	inconclusive: -43.7%
CCc1ccc(NC(=O)c2cc(C(C)=O)n3ccccc23)cc1	inconclusive: -41.7%
CCOC(=O)C(Cc1nc(OCc2ccccc2)cc(OCc2ccccc2)n1)=NO	inconclusive: -51.2%
COC(=O)c1cccc(NC(=O)/C=C/c2ccc3c(c2)OCO3)c1	inconclusive: -43.4%
COc1ccc(Cc2nnc(SCC(=O)Nc3ccc(C)cc3C)[nH]c2=O)cc1	inactive: -0.0907%
Cc1ccc(Cl)cc1N1CCN(C(=O)c2cnc(N3CCOCC3)c3ccccc23)CC1	active: -81.9%
CCOc1ccc(-n2c(Cc3ccccc3)nnc2SCc2nc(-c3ccccc3OC)no2)cc1	inconclusive: -41.1%
CCc1ccc(C2c3c(-c4ccccc4O)n[nH]c3C(=O)N2Cc2ccncc2)cc1 (centres undefined)	active: -82.7%
CN(c1ccccc1)S(=O)(=O)c1cccc(NC(=O)c2ccc3ncsc3c2)c1	inactive: -12%
COc1cccc(S(=O)(=O)Nc2ccc(C(=O)N3CCN(C(=O)c4ccco4)CC3)cc2)c1	inactive: 8.62%
CC(/C=N/N1CCN(Cc2ccccc2)CC1)=C\c1ccccc1	inconclusive: -45.2%
Cc1cc(C)c(-c2csc(NC(=O)/C=C/c3cccs3)n2)c(C)c1	inconclusive: -47.9%
O=C(Nc1ccccc1F)C(Cc1ccccc1)n1cccc1 (centres undefined)	inconclusive: -42.6%
CCC(C(=O)Nc1ccsc1C(=O)OC)c1ccccc1 (centres undefined)	active: -63.5%

SMILES	activity change, negative = inhibition
CC1=NN(c2nc(N)nc(/C(C#N)=C/c3ccc([N+](=O)[O-])o3)n2)C(C)(C)C1	inactive: -7.46%
Cc1ccc(OCCn2c(CNc3cccc(C)c3)nc3ccccc32)cc1	inconclusive: -42.2%
CCn1c(=O)cc(OCC(=O)N2CCN(c3cccc(C(F)(F)F)c3)CC2)c2ccccc21	inactive: -5.1%
Cc1nn(-c2ccccc2)c(Cl)c1C(=O)N1CCN(c2ncnc3c2cnn3-c2ccccc2)CC1	inconclusive: -43.5%
Cc1ccc(-c2cn3c(n2)sc2cc(C(=O)N4CCCCC4)ccc23)cc1	inconclusive: -53.4%
Cc1ccc(-c2nc(C)c(C(=O)O)s2)cc1	inconclusive: -44.9%
CCCOc1ccccc1Cn1c(=O)sc2ccccc21	active: -62.2%
COc1cc(C#N)ccc1OC(=O)c1cccc(S(=O)(=O)N2CCN(C)CC2)c1	inconclusive: -41.7%
Cc1[nH]c(=O)c(C(=O)c2ccccc2O)cc1C(=O)O	inconclusive: -54.2%
Cc1cccc(/C=N/NC(=O)c2cc(C3CC3)nc3ccccc23)n1	inconclusive: -43.8%
Cc1ccc(-n2cccn2)c(CN2CCCC(C(=O)c3sccc3C)C2)c1 (centres undefined)	inconclusive: -49.6%
CCC1CN(C(=O)N2CCC(C(=O)NCCc3ccc(OC)cc3OC)CC2)c2ccccc2O1 (centres undefined)	inconclusive: -54.8%
COc1ccc(CNC(=O)CCCCCNc2nc(=S)[nH]c3ccccc23)cc1	inconclusive: -53.5%
CC1(C(=O)N/N=C/c2cc3c(cc2Br)OCO3)CC1(Br)Br (centres undefined)	active: -82.7%
Cc1ccc(N2C(=O)C3CCC(C)(C2=O)C3(C)C)cc1 (centres undefined)	inactive: -11.8%
Cc1ccc(-c2cc(C(=O)Nc3ccc(S(=O)(=O)Nc4ncccn4)cc3)[nH]n2)c(O)c1C	inconclusive: -42%
COc1ccc(Cl)cc1Nc1sc(C(=O)c2ccccc2)c(N)c1C(=O)Nc1ccccc1	inconclusive: -44.8%
Cc1ccccc1NC(=O)c1ccc(CN2CCC(Cc3ccccc3)CC2)cc1	inconclusive: -53.6%
CC(C)Oc1c(Br)cc(Br)cc1/C=N/NC(N)=S	inconclusive: -46%
COCCNC(=O)c1cnn2c(C(F)F)cc(-c3ccccc3)nc12	inconclusive: -43.2%
CC(OC(=O)C1=COCCO1)C(=O)c1ccc(C(C)(C)C)cc1 (centres undefined)	inconclusive: -40.8%

SMILES	activity change, negative = inhibition
Cc1nc2c(-c3ccc(Cl)cc3)c(C)[nH]n2c(=O)c1Cc1ccccc1	inconclusive: -49.7%
COc1ccc(C2=CC(=O)N(Nc3ccccc3)C2=O)cc1	inconclusive: -41.4%
CCOC(=O)C1CCCN(C(=O)Nc2ccccc2)C1 (centres undefined)	inactive: 13.8%
COC(=O)CNC(=O)C1CCN(S(=O)(=O)c2cnc[nH]2)CC1	inconclusive: -47.9%
C/C(=N\NC(=S)NCC(C)(C)C)c1cc(F)cc(F)c1O	inconclusive: -42.2%
COc1ccc(C2CC(c3ccc(Cl)cc3)=NN2C(C)=O)cc1 (centres undefined)	inconclusive: -43.4%
O=C(N/N=C/c1ccc(OC(=O)c2ccccc2)c([N+](=O)[O-])c1)c1ccc(O)cc1	inconclusive: -42.2%
Cc1ccc(O)c(C(CC(=O)NCC2(c3ccccc3)CCCC2)c2ccccc2)c1 (centres undefined)	inconclusive: -48.2%
N#Cc1ccc(COC(=O)c2ccc(N3CCCC3)c([N+](=O)[O-])c2)cc1	inconclusive: -41.7%
CC(=O)Nc1ccc(NC(=O)C(C)OC(=O)c2ccc(S(=O)(=O)N3CCCCCC3)cc2)cc1 (centres undefined)	inconclusive: -53.3%
Cc1ccc(C)c(OCCC(=O)N2CCN(S(=O)(=O)c3ccc([N+](=O)[O-])cc3)CC2)c1	inactive: 0.992%
COc1ccccc1C(=O)NNC(=O)c1nn(Cc2ccccc2)c(=O)c2ccccc12	inconclusive: -40.2%
CCCC(C(=O)Nc1cc(S(=O)(=O)N2CCOCC2)ccc1OC)c1ccccc1 (centres undefined)	inactive: -6.06%
COC(=O)C(C)(C)ONC(=O)Nc1ccccc1Cl	active: -64.6%
O=C(O/N=C1\CCCc2ccccc21)c1cccs1	inconclusive: -48.4%
O=C(CN1C(=O)/C(=C/c2cccc(Br)c2)SC1=S)NC1=NCCS1	inconclusive: -56.8%
CCN(CC)c1ccc(C2Nc3ccccc3-c3cc(C)nn32)cc1 (centres undefined)	inconclusive: -44.4%
CCOCCCNC(=O)/C(C#N)=C/c1ccc(Cl)c([N+](=O)[O-])c1	inconclusive: -48.1%
Cc1nnc(N/N=C/C2CC=CCC2)[nH]c1=O (centres undefined)	active: -71.6%
Cc1ccc(Oc2ccc3c(c2)C(=O)N(c2ccc(S(=O)(=O)Nc4nccs4)cc2)C3=O)cc1	active: -107%
O=C(NNC(=O)c1ccccc1O)c1ccc(Cl)c(S(=O)(=O)N2CCc3ccccc32)c1	active: -72.8%
